# Screen size: about 52,000 compounds; about 4,300 (8.3%) were called active. Cut-off read from the data, not from the text of the source: active = survival mostly below about 52% (no sharp cut-off); inactive = mostly above about 56%. The list shows a part of the results.
# Tested on: DeltatarO mutant
# Test: growth inhibition of S. aureus wild type versus tarO mutant, primary screen, teichoic acid synthesis inhibitors, RN4220, OD600 (AID 463173)
# Conditions: OD600, 18 h, active compounds read low, screened at 18.75 µg/mL (by protocol)
row,SMILES,survival
1,Cc1cc(C)c(/C=N/NC(N)=O)c(C)c1/C=N/NC(N)=O,inactive: 84%
2,CC(C)NC(=O)CN1CCN(c2ccc(F)cc2)CC1,inactive: 87%
3,Cc1cc(C)cc(NC(=O)CCS(=O)(=O)c2cccc3nsnc23)c1,inactive: 58%
4,COc1ccc2sc(N(Cc3cccnc3)C(=O)c3ccc4c(c3)OCCO4)nc2c1,inactive: 101%
5,COc1ccccc1NC(=O)CC1COc2ccccc2O1 (stereo unspecified),inactive: 82%
6,COc1ccc(NC(=O)CCCSc2nc(-c3ccco3)cc(C(F)(F)F)n2)cc1OC,inactive: 45%
7,CCCCN(CC)CCCNC(=O)c1cc2c(=O)[nH]c3ccccc3c2n1C,inactive: 90%
8,COc1cccc(C(=O)Nc2cccc(OCc3cc(=O)n4c5c(sc4n3)CCCC5)c2)c1,active: 51%
9,CC(=O)Nc1ccc(NS(=O)(=O)c2c(C(=O)N3CCC(C)CC3)c(C)n(C)c2C)cc1,active: 20%
10,CCc1ccc(-c2cn3c(n2)sc2cc(C(=O)NC4CCCCC4)ccc23)cc1,inactive: 87%
11,COc1cccc(-c2nc(S(=O)(=O)c3ccc(Cl)cc3)c(NCc3ccccc3)o2)c1,inactive: 180%
12,COc1ccc2oc(=O)c(C(=O)NCCc3c(C)[nH]c4ccc(F)cc34)cc2c1,inactive: 46%
13,COCCNc1oc(-c2ccccc2)nc1S(=O)(=O)c1ccc(Br)cc1,inactive: 79%
14,CS(=O)(=O)N(CCC(=O)O)Cc1ccccc1,inactive: 87%
15,COc1ccc(CNC(=O)CN(c2ccc(C(C)C)cc2)S(=O)(=O)c2c(C)nn(C)c2C)cc1,inactive: 64%
16,COc1ccc(NC(=O)CSc2nc3ccccc3nc2N2CCC(C)CC2)cc1,inactive: 45%
17,O=S(=O)(c1ccccc1)N1CCC(n2cnc3ccccc32)CC1,inactive: 78%
18,Cc1ccc(-c2nc(=O)[nH]c3ccccc23)cc1,inactive: 102%
19,CCOC(=O)c1c(NC(C)=O)sc2c(NC(C)=O)cccc12,inactive: 69%
20,CCC(C(=O)OCc1cc(=O)n2nc(C)sc2n1)c1ccccc1 (stereo unspecified),inactive: 99%
21,Cc1cccc(-c2noc(CN(C3CCCCC3)S(=O)(=O)c3ccc(F)cc3)n2)c1,inactive: 71%
22,C(=N\N(Cc1ccccc1)Cc1ccccc1)/c1ccco1,inactive: 98%
23,COc1ccc(OC)c(NC(=O)c2c(NCc3sccc3C)sc3c2CCCCC3)c1,inactive: 78%

row,SMILES,survival
1,COc1ccc2c(c1)-c1nc(NC(=O)c3ccc(OC)c(Br)c3)sc1CC2,inactive: 59%
2,COc1ccc(CC(=O)NCCc2sc3nc(-c4ccc(OC)cc4)nn3c2C)cc1,inactive: 80%
3,Cc1cc(C)c(C)c(OCC(=O)Nc2ccc(S(=O)(=O)Nc3nc(C)cc(C)n3)cc2)c1,inactive: 51%
4,COc1ccccc1NC(=O)CCn1nc(-c2ccccc2OC)c2c(C)cc(C)nc21,inactive: 104%
5,Cc1ccccc1OCC(=O)OCc1cc(=O)n2nc(C3CC3)sc2n1,inactive: 91%
6,CCC(=O)N1CCc2cc(Br)cc(S(=O)(=O)CCC(=O)N3CCN(c4ccc(F)cc4)CC3)c21,inactive: 139%
7,O=C(CSC1=Nc2ccccc2N=C(c2ccc(F)cc2)C1)Nc1cccc(C(F)(F)F)c1,inactive: 70%
8,COc1ccc(CN(Cc2ccccc2)Cc2nnnn2C(C)(C)C)cc1,inactive: 63%
9,CCOC(=O)C1CCCN(C(=O)C2CCN(S(=O)(=O)c3c(C)noc3/C=C/c3ccccc3F)CC2)C1 (stereo unspecified),inactive: 85%
10,CCc1ccc(NC(=O)CC2C(=O)N(c3cccc(C)c3)C(=O)N2CCC(C)C)cc1 (stereo unspecified),inactive: 88%
11,CC(C)OC(=O)C(C(=O)C(F)(F)F)c1cc(NS(=O)(=O)c2ccc3c4c(cccc24)C(=O)N3)ccc1O (stereo unspecified),inactive: 64%
12,Cc1cccc(-c2nc3ccccc3n2Cc2ccccc2)c1,active: 0%
13,CCNc1ncnc2c1nnn2C,inactive: 55%
14,CCOC(=O)c1c(C)[nH]c(CCC(=O)Nc2c(C)cccc2CC)c1C,inactive: 67%
15,CCOC(=O)N1CCc2c(sc(NCc3cccc(F)c3)c2C(=O)Nc2ccc(OC)cc2OC)C1,inactive: 98%
16,CCC(=O)Nc1ccccc1-c1nc2ccccc2n(CC(=O)c2ccc(Cl)cc2)c1=O,active: 35%
17,Cc1ccc(S(=O)(=O)c2nnn3c2nc(NC(C)C)c2sccc23)cc1,inactive: 83%
18,O=C(/C=C/c1ccco1)Nc1cc(C(=O)O)cc(C(=O)O)c1,inactive: 84%
19,CCCN(CCC)CCCNC(=O)c1cn(CC)c2ccc(S(=O)(=O)N(C)C3CCCCC3)cc2c1=O,inactive: 94%
20,CCc1ccc(OCc2cc(=O)n3c4c(sc3n2)CCCC4)cc1,inactive: 61%
21,COc1cccc(N2CCN(C(=O)C3Cc4ccccc4N3C(C)=O)CC2)c1 (stereo unspecified),inactive: 76%
22,O=C(C1CCC1)N1CCCc2cc(S(=O)(=O)N3CCN(c4ccccc4)CC3)ccc21,inactive: 81%
23,Cc1ccc(S(=O)(=O)N2CCCc3cc(NS(=O)(=O)c4cc(F)ccc4F)ccc32)cc1,inactive: 120%
